Residue numbers refer to the chain shown, from its start.
B1: lipocalin mutein SEQ ID NO: 24 (designed binder)
chain: ASDEEIQDVSGTWYLKAMTVDRFKIASWPRSVTPMTLTTLEGGNLEAKVTMNWWGRSQEVKAVLEKTDEPGKYTAQGGSHVEYIIRSHVKDHYIFYSEGNLQGEPVPGVWLVGRDPKNNLEALEDFEKAAGARGLSTESILIPRQSETSSPGSAWSHPQFEK
notes: human tear lipocalin mutein
B2: lipocalin mutein SEQ ID NO: 23 (designed binder)
chain: B1 chain with E41G, Y83H, E98K
notes: human tear lipocalin mutein
B3: lipocalin mutein SEQ ID NO: 26 (designed binder)
chain: B1 chain with Q76V, E82A, N100K
notes: human tear lipocalin mutein
B4: lipocalin mutein SEQ ID NO: 25 (designed binder)
chain: B1 chain with E59D, E65G, G78D, E82S, F95L, E98V, P105T
notes: human tear lipocalin mutein
B5: lipocalin mutein SEQ ID NO: 28 (designed binder)
chain: B1 chain with A26G, S27A, Q76T, E82A, N100K
notes: human tear lipocalin mutein
B6: lipocalin mutein SEQ ID NO: 27 (designed binder)
chain: B1 chain with A26G, W54R, E82A, N100K
notes: human tear lipocalin mutein
B7: lipocalin mutein SEQ ID NO: 17 (designed binder)
chain: ASDEEIQDVSGTWYLKAMTVDFSRGDAIWTSVTPMTLTTLEGGNLEAKVTMMYAGRSQEVKAVLEKTDEPGKYTASGGSHVAYIIRSHVKDHYIFYSEGPHQGAPVPGVWLVGRDPKNNLEALEDFEKAAGARGLSTESILIPRQSETSSPGSAWSHPQFEK
notes: human tear lipocalin mutein
B8: lipocalin mutein SEQ ID NO: 14 (designed binder)
chain: B7 chain with S76M, I85T
notes: human tear lipocalin mutein
B9: lipocalin mutein SEQ ID NO: 15 (designed binder)
chain: B7 chain with T39I, E59G, A62V, S76M, H80Q, S97P, H101Y
notes: human tear lipocalin mutein
B10: lipocalin mutein SEQ ID NO: 21 (designed binder)
chain: B7 chain with S76M, I85L
notes: human tear lipocalin mutein
B11: lipocalin mutein SEQ ID NO: 19 (designed binder)
chain: B7 chain with L45M, S76M, P100L, H101Y
notes: human tear lipocalin mutein
B12: lipocalin mutein SEQ ID NO: 18 (designed binder)
chain: B7 chain with T39A, N44G, A62V, S76M, V81G, I85T, H101Y, Q102R
notes: human tear lipocalin mutein
B13: lipocalin mutein SEQ ID NO: 16 (designed binder)
chain: B7 chain with A75T, S76M, H101Y
notes: human tear lipocalin mutein
B14: lipocalin mutein SEQ ID NO: 9 (designed binder)
chain: ASDEEIQDVSGTWYLKAMTVDTEHLADWANSVTPMTLTTLEGGNLEAKVTMHQPGRSQEVKAVLEKTDEPGKYTAIGGSHVAYIIRSHVKDHYIFYSEGAYPGSPVPGVWLVGRDPKNNLEALEDFEKAAGARGLSTESILIPRQSETSSPGSAWSHPQFEK
notes: human tear lipocalin mutein
B15: lipocalin mutein SEQ ID NO: 5 (designed binder)
chain: ASDEEIQDVSGTWYLKAMTVDHEWNGHYYTSVTPMTLTTLEGGNLEAKVTMSYRGRSQEVKAVLEKTDEPGKYTAPGGQHVAYIIRSHVKDHYIFYSEGSWPGYPVPGVWLVGRDPKNNLEALEDFEKAAGARGLSTESILIPRQSETSSPGSAWSHPQFEK
notes: human tear lipocalin mutein
B16: lipocalin mutein SEQ ID NO: 10 (designed binder)
chain: ASDEEIQDVSGTWYLKAMTVDRADMGDWPNSVTPMTLTTLEGGNLEAKVTMFTRGRSQEVKAVLEKTDEPGKYTATGGEHVAYIIRSHVKDHYIFYSEGTLTGRPVPGVWLVGRDPKNNLEALEDFEKAAGARGLSTESILIPRQSETSSPGSAWSHPQFEK
notes: human tear lipocalin mutein
B17: lipocalin mutein SEQ ID NO: 12 (designed binder)
chain: ASDEEIQDVSGTWYLKAMTLDWQCDTGLWTSVTPMTLTTLEGGNLEAKVTMSYAGAFQEVKAVLEKTDEPGKYTADGGKHVAYIIRSHVKDHYIFYSEGECGGWPVPGVWLVGRDPKNNLEALEDFEKAAGARGLSTESILIPRQSETSSPGSAWSHPQFEK
notes: human tear lipocalin mutein
B18: lipocalin mutein SEQ ID NO: 11 (designed binder)
chain: B7 chain with F22W, S23R, R24L, G25D, D26N, A27E, I28L, S76Q, H101R, Q102N
notes: human tear lipocalin mutein
B19: lipocalin mutein SEQ ID NO: 63 (designed binder)
chain: B7 chain with K66R, A75V, S76M, H88P, H101G
B20: lipocalin mutein SEQ ID NO: 67 (designed binder)
chain: B7 chain with K66R, A75M, S76M, H88P, H101V
B21: lipocalin mutein SEQ ID NO: 68 (designed binder)
chain: B7 chain with K66R, A75V, S76M, H88P, H101P
B22: lipocalin mutein SEQ ID NO: 69 (designed binder)
chain: B7 chain with K66R, A75V, S76M, H88P, H101K
B23: lipocalin mutein SEQ ID NO: 64 (designed binder)
chain: B7 chain with K66R, A75V, S76M, H88P, H101R
B24: lipocalin mutein SEQ ID NO: 66 (designed binder)
chain: B7 chain with K66R, A75V, S76M, H88P, H101D
B25: lipocalin mutein SEQ ID NO: 71 (designed binder)
chain: B7 chain with K66R, A75V, S76M, H88P, H101L
B26: lipocalin mutein SEQ ID NO: 65 (designed binder)
chain: B7 chain with K66R, A75T, S76M, H88P, H101A
B27: lipocalin mutein SEQ ID NO: 70 (designed binder)
chain: B7 chain with K66R, A75T, S76M, H88P, H101R

molecular target: T1, human PCSK9 (SEQ ID NO: 34) containing a C-terminal FLAG tag (human, UniProt Q8NBP7 31-152; Q8NBP7 153-692); experiment: SPR (Biacore T200), hPCSK9-Bio captured, 1:1 model
T1 construct: Secreted from HEK293F cells; also called hPCSK9; hPCSK9 wt; not shown: C-terminal FLAG tag

Kd [nM] | koff [s⁻¹] | kon [M⁻¹ s⁻¹] | Binder
0.31 | 0.000115 | 367000 | B1
0.21 | 0.000176 | 836000 | B2
0.34 | 0.00023 | 668000 | B3
0.24 | 0.000105 | 436000 | B4
0.29 | 0.000198 | 684000 | B5
0.42 | 0.00031 | 734000 | B6
0.45 | 0.000111 | 249000 | B7
0.41 | 0.000105 | 256000 | B8
0.38 | 0.000107 | 278000 | B9
0.56 | 0.000137 | 245000 | B10
0.53 | 0.000132 | 247000 | B11
0.35 | 0.000111 | 313000 | B12
0.51 | 0.000129 | 255000 | B13

molecular target: T1, human PCSK9 (SEQ ID NO: 34) containing …; experiment: binding ELISA, biotinylated PCSK9 on Neutravidin plate

EC50 [nM] | Binder
5.6 | B14
5.1 | B15

molecular target: T2, gain of function hPCSK9_D374Y mutant (human, UniProt Q8NBP7 31-152; Q8NBP7 153-692); experiment: as above
T2 construct: also called human PCSK9_D374Y; not shown: FLAG tag

EC50 [nM] | Binder
1.1 | B14
2.9 | B15

molecular target: T3, mouse PCSK9 (mouse, UniProt Q80W65 35-694, limits assumed); experiment: as above
T3 construct: biotinylated in the assays; also called mPCSK9
T3 sequence (Q80W65 35-694 limits assumed): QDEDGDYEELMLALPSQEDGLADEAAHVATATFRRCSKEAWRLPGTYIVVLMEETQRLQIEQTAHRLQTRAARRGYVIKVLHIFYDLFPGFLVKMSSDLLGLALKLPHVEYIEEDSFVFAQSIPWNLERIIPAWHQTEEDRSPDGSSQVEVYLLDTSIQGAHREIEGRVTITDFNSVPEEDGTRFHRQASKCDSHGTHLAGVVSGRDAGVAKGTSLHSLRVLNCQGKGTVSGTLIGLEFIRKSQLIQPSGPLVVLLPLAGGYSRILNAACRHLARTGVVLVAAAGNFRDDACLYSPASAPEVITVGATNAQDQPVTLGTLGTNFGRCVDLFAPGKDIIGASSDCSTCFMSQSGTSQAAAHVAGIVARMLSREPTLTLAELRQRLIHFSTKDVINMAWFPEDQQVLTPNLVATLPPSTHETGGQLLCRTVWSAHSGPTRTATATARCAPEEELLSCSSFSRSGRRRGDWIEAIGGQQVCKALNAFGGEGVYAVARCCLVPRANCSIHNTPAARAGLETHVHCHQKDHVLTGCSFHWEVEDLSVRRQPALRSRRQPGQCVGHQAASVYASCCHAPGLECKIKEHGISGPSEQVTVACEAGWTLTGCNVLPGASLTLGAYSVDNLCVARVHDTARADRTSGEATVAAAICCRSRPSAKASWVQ

EC50 [nM] | Binder
16.2 | B14
30 | B15

molecular target: T1, human PCSK9 (SEQ ID NO: 34) containing …; experiment: SPR (Biacore T200), biotinylated PCSK9 captured, 1:1 model

Kd [nM] | koff [s⁻¹] | kon [M⁻¹ s⁻¹] | Binder
20.6 | 0.0048 | 233000 | B14
12.6 | 0.00719 | 570000 | B16
6.4 | 0.000156 | 24400 | B17
4.8 | 0.000163 | 34000 | B15
1.89 | 8.9e-05 | 47000 | B18

molecular target: T1, human PCSK9 (SEQ ID NO: 34) containing …; experiment: SPR (Biacore T200), biotinylated human PCSK9 captured, 1:1 model

Kd [nM] | koff [s⁻¹] | kon [M⁻¹ s⁻¹] | Binder
0.33 | 7.84e-05 | 235000 | B19
0.31 | 7.6e-05 | 249000 | B20
0.31 | 8.03e-05 | 263000 | B21
0.29 | 7.66e-05 | 263000 | B22
0.22 | 7.25e-05 | 323000 | B23
0.33 | 8.17e-05 | 251000 | B24
0.32 | 8.81e-05 | 272000 | B25
0.32 | 7.61e-05 | 239000 | B26
0.33 | 7.39e-05 | 223000 | B27

Source: patent publication US20170173112A1 (Daiichi Sankyo, published 2017)
